Measurements as given in publication PMC11602552.

Biological target: wild type eIF6 (eIF6^WT), purified
Assay: SPR

## p38α, purified (a stretch of the chain, letters omitted) (enzyme; other documents disagree on this pair)
  Kd: 1160 nM
